# Measured values reported in a collection of fitness landscapes (doi:10.1038/s41467-024-54723-y).
# Whole data set: some 18,000 sequences, median “TetR repression strength (sort-seq, GFP reporter)” near 0.23, cut for the highest 2% near 0.68. The list shows a part of the results.
# Biological target: TetR (class B, Tn10) (UniProt P04483)
# Test: TetR repression strength (sort-seq, GFP reporter) (relative to tetO2 = 1); higher = stronger repression
# Settings: E. coli
# Method in brief: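 Repression strength was calculated by subtracting the read-weighted mean bin from the top bin index plus one and dividing by the unaltered operator's value. The plasmid library was low-copy in E. coli SIG10-MAX, with eight randomized operator positions between a constitutive promoter and sfGFP and constitutive TetR. Cultures grew 5 h at 37 °C in LB containing 50 µg/mL chloramphenicol before 10^6 cells were sorted by FACS into 13 fluorescence bins, each sequenced on Illumina. Three independent transformations were averaged for members having ≥30 reads in all replicates and a CV ≤0.5.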
# Chain of UniProt P04483 (P04483 whole entry): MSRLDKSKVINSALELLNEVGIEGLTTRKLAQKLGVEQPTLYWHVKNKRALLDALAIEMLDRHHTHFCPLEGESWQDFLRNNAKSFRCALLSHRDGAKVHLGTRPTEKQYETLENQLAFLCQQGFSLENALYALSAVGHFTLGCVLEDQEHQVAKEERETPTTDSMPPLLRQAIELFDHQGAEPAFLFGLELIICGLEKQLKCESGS
row,Sequence,TetR repression strength
1,TCCCCGGAAGTAAGGGAGA,0.128
2,TCCCTATCAGTGTAGGAGA,0.484
3,TCCCGGTGAGTGTGCGAGA,0.263
4,TCCCGTGCAGTGGAAGAGA,0.497
5,TCCCCTGAAGTGTGCGAGA,0.299
6,TCCCCGAAAGTGGGTGAGA,0.161
7,TCCCTAAGAGTTAATGAGA,0.217
8,TCCCTAATAGTGTAAGAGA,0.0478
9,TCCCTAAAAGTTGGGGAGA,0.168
10,TCCCCTGAAGTCCACGAGA,0.305
11,TCCCGGGGAGTTCCCGAGA,0.0105
12,TCCCGATAAGTACTCGAGA,0.212
13,TCCCACTCAGTGAGAGAGA,0.514
14,TCCCTAGTAGTACGCGAGA,0.0159
15,TCCCCAAAAGTAGATGAGA,0.081
16,TCCCAGACAGTTGGGGAGA,0.0203
17,TCCCTCGCAGTGGTGGAGA,0.223
18,TCCCGTGTAGTTTTTGAGA,0.207
19,TCCCTGTCAGTTGACGAGA,0.225
20,TCCCGTTCAGTCTAAGAGA,0.181
21,TCCCTAGGAGTCTGTGAGA,0.318
22,TCCCGCAAAGTATGAGAGA,0.0691
23,TCCCATTGAGTGCAGGAGA,0.466
24,TCCCGTTCAGTATGAGAGA,0.157
25,TCCCGTTGAGTGCTTGAGA,0.223
26,TCCCTGTAAGTGGACGAGA,0.166

row,Sequence,TetR repression strength
1,TCCCGAAAAGTCTTGGAGA,0.171
2,TCCCGGTTAGTGCGTGAGA,0.192
3,TCCCGTCAAGTAGCCGAGA,1.02
4,TCCCGAGCAGTTCATGAGA,0.225
5,TCCCGTATAGTCCGCGAGA,0
6,TCCCTGGCAGTTGTAGAGA,0.235
7,TCCCAGTTAGTTGGCGAGA,0.398
8,TCCCAGAAAGTAAAAGAGA,0.504
9,TCCCGCCAAGTATAAGAGA,0.264
10,TCCCGCTCAGTGTTAGAGA,0.433
11,TCCCAGACAGTGCGGGAGA,0.264
12,TCCCCGGCAGTGACGGAGA,0.136
13,TCCCGGACAGTGCGCGAGA,0.131
14,TCCCACCCAGTTGTTGAGA,0.0405
15,TCCCATGGAGTTACGGAGA,0.122
16,TCCCAGGAAGTGAGAGAGA,0.221
17,TCCCAAGAAGTTAGCGAGA,0.104
18,TCCCAAAGAGTGTGCGAGA,0.302
19,TCCCGTCAAGTCCAAGAGA,0.051
20,TCCCAGTCAGTTGAAGAGA,0.858
21,TCCCCAGGAGTAGGAGAGA,0.218
22,TCCCGAGAAGTGTGTGAGA,0.239
23,TCCCGTCAAGTTCAAGAGA,0
24,TCCCTTAGAGTTAAAGAGA,0.352
25,TCCCGTCTAGTGGTAGAGA,0.52
26,TCCCACAGAGTAGCCGAGA,0.0299

row,Sequence,TetR repression strength
1,TCCCGAGGAGTTTCCGAGA,0.13
2,TCCCGAGGAGTAGCGGAGA,0.628
3,TCCCACCTAGTCGGGGAGA,0.191
4,TCCCTGTGAGTGAGAGAGA,0.407
5,TCCCGAACAGTGTACGAGA,0.0363
6,TCCCCCGAAGTGCATGAGA,0.14
7,TCCCCCTTAGTGGGTGAGA,0.00576
8,TCCCTGTCAGTGGTTGAGA,0.486
9,TCCCTTTCAGTGAGAGAGA,0.566
10,TCCCTCGGAGTCATGGAGA,0.132
11,TCCCGAGAAGTGGTGGAGA,0.0377
12,TCCCATTGAGTCCTGGAGA,0.306
13,TCCCTGAAAGTGTGAGAGA,0.0794
14,TCCCGCAGAGTCTGAGAGA,0.23
15,TCCCCTTTAGTTTAGGAGA,0.313
16,TCCCGTAAAGTCGAAGAGA,0.466
17,TCCCGACAAGTTGCTGAGA,0.0804
18,TCCCTAGTAGTAGCTGAGA,0.307
19,TCCCCCAGAGTTTCGGAGA,0.11
20,TCCCTGATAGTATTGGAGA,0.311
21,TCCCACGGAGTTCTAGAGA,0.219
22,TCCCTATTAGTCTCCGAGA,0.532
23,TCCCGGTGAGTGCCGGAGA,0.235
24,TCCCGCAGAGTGAGAGAGA,0.191
25,TCCCGTCAAGTGACAGAGA,0.145
26,TCCCTTAAAGTAGTTGAGA,0.228

row,Sequence,TetR repression strength
1,TCCCGGAGAGTGCGCGAGA,0.116
2,TCCCATAAAGTCGCAGAGA,0.37
3,TCCCGCTCAGTACTAGAGA,0.173
4,TCCCCGTGAGTCGATGAGA,0.313
5,TCCCGCGGAGTGGTAGAGA,0.115
6,TCCCCTGTAGTGCAGGAGA,0.128
7,TCCCTAAGAGTGCGGGAGA,0.0983
8,TCCCACGGAGTCGGCGAGA,0.148
9,TCCCTTCAAGTAGGAGAGA,0.281
10,TCCCACCGAGTGATGGAGA,0.167
11,TCCCGGTTAGTACTGGAGA,0.416
12,TCCCATCGAGTTCTGGAGA,0.0421
13,TCCCAGGTAGTAATAGAGA,0.443
14,TCCCGCGTAGTAATTGAGA,0.207
15,TCCCCTCGAGTGGTTGAGA,0.13
16,TCCCCGTCAGTCGTAGAGA,0.336
17,TCCCGCTAAGTATCCGAGA,0.0259
18,TCCCAAGGAGTAGTCGAGA,0.216
19,TCCCGGTGAGTTATCGAGA,0.196
20,TCCCTTAAAGTAGGTGAGA,0
21,TCCCGAAAAGTCGCTGAGA,0.133
22,TCCCTTCTAGTAGACGAGA,0.308
23,TCCCGTGCAGTAGCCGAGA,0.0632
24,TCCCGGTTAGTGTGTGAGA,0.17
25,TCCCGGTCAGTCCGCGAGA,0.162
26,TCCCATGAAGTTTGTGAGA,0.0431

row,Sequence,TetR repression strength
1,TCCCCGGAAGTAGTCGAGA,0.168
2,TCCCTAAAAGTACAGGAGA,0.262
3,TCCCGGTGAGTGGCGGAGA,0.131
4,TCCCTGTTAGTACTGGAGA,0.322
5,TCCCGTCGAGTTGTCGAGA,0.472
6,TCCCATTCAGTAAGGGAGA,0.194
7,TCCCGTCAAGTGGGGGAGA,0.151
8,TCCCTGCTAGTCTAGGAGA,0.121
9,TCCCGGTTAGTTTCCGAGA,0.284
10,TCCCAGTGAGTGTGTGAGA,0.118
11,TCCCTTTTAGTGATAGAGA,0.512
12,TCCCAGGAAGTTATCGAGA,0.254
13,TCCCTGCGAGTGCACGAGA,0.314
14,TCCCAGGGAGTAGCGGAGA,0.159
15,TCCCGTGTAGTAAAGGAGA,0.104
16,TCCCAGGGAGTGCTCGAGA,0.187
17,TCCCGTTCAGTCGGAGAGA,0.123
18,TCCCAGTGAGTCTTTGAGA,0.339
19,TCCCTTGAAGTTGGGGAGA,0.143
20,TCCCAATTAGTGGGAGAGA,0.147
21,TCCCGGGCAGTCGTAGAGA,0.285
22,TCCCAAACAGTTACGGAGA,0.149
23,TCCCGGTAAGTTCAGGAGA,0.3
24,TCCCGACGAGTTGCTGAGA,0.295
25,TCCCCTGCAGTCGACGAGA,0.14
26,TCCCTTGTAGTGCATGAGA,0.283
